# Test results reported in paper PMC5700166.
# The entries are a selection whose mix differs from that of the whole data set. The list includes weakly bound sequences.
# Experiments:
# Experiment in all cases: protein-binding microarray (PBM)
# Details in all cases: PBM: ~300 nM protein, 6 mM HEPES pH 7.8, 80 mM KCl, 0.5 mM EDTA, 0.5 mM EGTA, 6% glycerol, 35 ng/ul poly-dIdC, 1% milk, 1 h, room temperature; Ap Aiptasia and Nv Nematostella (sea anemones) / Co Capsaspora / Aq Amphimedon (sponge) / Dm Drosophila / Hu human; RHD is the Rel homology domain; high values mean tight binding; most listed sequences are background and not binding sites; double strand, one strand shown
# [1] = target: T1, GST-Ap-NF-kB RHD (UniProt A0A913YAJ5)
# T1 sequence: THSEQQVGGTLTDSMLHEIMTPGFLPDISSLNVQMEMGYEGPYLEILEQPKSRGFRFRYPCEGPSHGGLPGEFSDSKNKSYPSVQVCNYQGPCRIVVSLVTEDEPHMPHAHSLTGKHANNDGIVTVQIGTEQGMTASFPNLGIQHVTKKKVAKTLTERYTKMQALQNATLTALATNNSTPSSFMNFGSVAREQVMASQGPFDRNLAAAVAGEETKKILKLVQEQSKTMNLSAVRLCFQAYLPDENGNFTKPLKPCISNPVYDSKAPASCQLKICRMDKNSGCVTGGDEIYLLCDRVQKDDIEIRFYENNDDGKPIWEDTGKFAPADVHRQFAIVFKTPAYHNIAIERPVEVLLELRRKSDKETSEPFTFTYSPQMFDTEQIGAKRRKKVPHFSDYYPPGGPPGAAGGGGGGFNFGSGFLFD
# [2] = target: T2, GST-Nv-NF-kB (Cys allele) (UniProt E5G601)
# T2 sequence: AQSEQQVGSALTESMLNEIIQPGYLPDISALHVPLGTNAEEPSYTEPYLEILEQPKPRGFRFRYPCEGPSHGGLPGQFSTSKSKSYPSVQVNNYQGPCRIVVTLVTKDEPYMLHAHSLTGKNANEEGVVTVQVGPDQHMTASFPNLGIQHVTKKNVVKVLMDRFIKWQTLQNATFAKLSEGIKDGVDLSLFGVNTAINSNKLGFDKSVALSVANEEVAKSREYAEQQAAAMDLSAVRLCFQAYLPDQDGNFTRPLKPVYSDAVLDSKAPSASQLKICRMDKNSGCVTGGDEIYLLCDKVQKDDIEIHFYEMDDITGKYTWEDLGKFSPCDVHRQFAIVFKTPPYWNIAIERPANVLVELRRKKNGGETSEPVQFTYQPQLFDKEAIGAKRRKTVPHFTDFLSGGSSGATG
# [3] = target: T3, GST-Co-NF-kB (UniProt F1ARL5)
# T3 sequence: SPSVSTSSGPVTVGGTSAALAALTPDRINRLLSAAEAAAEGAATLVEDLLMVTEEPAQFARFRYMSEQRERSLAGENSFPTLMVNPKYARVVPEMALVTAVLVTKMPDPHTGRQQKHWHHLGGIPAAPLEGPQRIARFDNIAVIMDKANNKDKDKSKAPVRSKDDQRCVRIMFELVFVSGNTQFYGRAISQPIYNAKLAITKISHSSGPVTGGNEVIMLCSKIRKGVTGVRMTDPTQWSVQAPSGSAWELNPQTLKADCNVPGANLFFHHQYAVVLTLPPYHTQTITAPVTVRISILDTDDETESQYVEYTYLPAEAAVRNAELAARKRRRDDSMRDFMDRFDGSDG
# [4] = target: T4, GST-Dm-Relish (UniProt Q94527)
# T4 sequence: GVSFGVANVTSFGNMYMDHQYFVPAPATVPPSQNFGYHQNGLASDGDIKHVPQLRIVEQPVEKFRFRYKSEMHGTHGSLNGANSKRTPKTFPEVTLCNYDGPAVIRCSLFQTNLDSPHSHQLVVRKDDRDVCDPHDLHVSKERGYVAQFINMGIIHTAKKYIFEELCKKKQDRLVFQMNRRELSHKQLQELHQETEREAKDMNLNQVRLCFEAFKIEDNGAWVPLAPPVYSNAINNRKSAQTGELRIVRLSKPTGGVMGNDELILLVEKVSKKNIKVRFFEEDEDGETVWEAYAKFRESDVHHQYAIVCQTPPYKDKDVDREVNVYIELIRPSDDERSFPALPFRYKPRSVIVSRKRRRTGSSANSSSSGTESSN
# [5] = target: T5, GST-Aq-NF-kB (UniProt A9Y5G7)
# T5 sequence: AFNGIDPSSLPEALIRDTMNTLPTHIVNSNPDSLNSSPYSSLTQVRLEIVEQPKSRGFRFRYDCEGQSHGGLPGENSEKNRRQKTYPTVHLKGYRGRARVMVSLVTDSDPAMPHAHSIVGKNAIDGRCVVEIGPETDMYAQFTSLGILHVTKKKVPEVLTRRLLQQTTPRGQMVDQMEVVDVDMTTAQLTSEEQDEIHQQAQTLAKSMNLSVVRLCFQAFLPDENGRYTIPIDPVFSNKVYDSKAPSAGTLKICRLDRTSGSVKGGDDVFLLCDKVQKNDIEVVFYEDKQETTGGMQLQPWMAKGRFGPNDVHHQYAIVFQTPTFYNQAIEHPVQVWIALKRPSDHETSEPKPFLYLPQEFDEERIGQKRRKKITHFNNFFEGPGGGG
sequence,measurement,setting,value
CCGATTAACATCAGGCAAGTCCATGATGTTAATCGGGTCTTGATTCGCTTGACGCTGCTG,binding signal,[1],0.38 z-score
same,binding signal,[2],-0.745 z-score
same,binding signal,[3],-0.574 z-score
same,binding signal,[4],-0.151 z-score
same,binding signal,[5],0.464 z-score
CCGATTAACATCAAATCGCAGCCTGATGTTAATCGGGTCTTGATTCGCTTGACGCTGCTG,binding signal,[1],-0.104 z-score
same,binding signal,[2],-1.12 z-score
same,binding signal,[3],-0.621 z-score
same,binding signal,[4],-0.837 z-score
same,binding signal,[5],-0.431 z-score
CCGATTAACATCAGTTTCCCCCATGATGTTAATCGGGTCTTGATTCGCTTGACGCTGCTG,binding signal,[1],6.91 z-score
same,binding signal,[2],6.51 z-score
same,binding signal,[3],10.6 z-score
same,binding signal,[4],2.94 z-score
same,binding signal,[5],5.09 z-score
CCGATTAACATCATCGCATATGCTGATGTTAATCGGGTCTTGATTCGCTTGACGCTGCTG,binding signal,[1],-0.403 z-score
same,binding signal,[2],-1.19 z-score
same,binding signal,[3],-0.951 z-score
same,binding signal,[4],-0.706 z-score
same,binding signal,[5],-0.583 z-score
CCGATTAACATCACAACCAAGGATGATGTTAATCGGGTCTTGATTCGCTTGACGCTGCTG,binding signal,[1],-0.251 z-score
same,binding signal,[2],-1.03 z-score
same,binding signal,[3],-0.212 z-score
same,binding signal,[4],-0.51 z-score
same,binding signal,[5],-0.29 z-score
CCGATTAACATCAGCAATCCTTGTGATGTTAATCGGGTCTTGATTCGCTTGACGCTGCTG,binding signal,[1],-0.872 z-score
same,binding signal,[2],-0.499 z-score
same,binding signal,[3],-0.0493 z-score
same,binding signal,[4],-0.202 z-score
same,binding signal,[5],-0.347 z-score
CCGATTAACATCATGTTTAGTCCTGATGTTAATCGGGTCTTGATTCGCTTGACGCTGCTG,binding signal,[1],-0.442 z-score
same,binding signal,[2],0.000489 z-score
same,binding signal,[3],-0.443 z-score
same,binding signal,[4],0.0411 z-score
same,binding signal,[5],0.0346 z-score
CCGATTAACATCATCGAGTATTGTGATGTTAATCGGGTCTTGATTCGCTTGACGCTGCTG,binding signal,[1],-0.591 z-score
same,binding signal,[2],-1.28 z-score
same,binding signal,[3],0.311 z-score
same,binding signal,[4],-0.159 z-score
same,binding signal,[5],-0.194 z-score
CCGATTAACATCAATGTCTCGAGTGATGTTAATCGGGTCTTGATTCGCTTGACGCTGCTG,binding signal,[1],-0.991 z-score
same,binding signal,[2],-0.144 z-score
same,binding signal,[3],-0.521 z-score
same,binding signal,[4],-0.0557 z-score
same,binding signal,[5],-0.435 z-score
CCGATTAACATCAGATGGCGACTTGATGTTAATCGGGTCTTGATTCGCTTGACGCTGCTG,binding signal,[1],-0.526 z-score
same,binding signal,[2],-0.787 z-score
same,binding signal,[3],-0.567 z-score
same,binding signal,[4],-0.421 z-score
same,binding signal,[5],-0.426 z-score
CCGATTAACATCAGGACACTCCATGATGTTAATCGGGTCTTGATTCGCTTGACGCTGCTG,binding signal,[1],-0.125 z-score
same,binding signal,[2],0.0867 z-score
same,binding signal,[3],-0.507 z-score
same,binding signal,[4],-0.34 z-score
same,binding signal,[5],0.323 z-score
CCGATTAACATCAAGTGAAGTAGTGATGTTAATCGGGTCTTGATTCGCTTGACGCTGCTG,binding signal,[1],-0.0963 z-score
same,binding signal,[2],0.223 z-score
same,binding signal,[3],-0.117 z-score
same,binding signal,[4],0.046 z-score
same,binding signal,[5],-0.251 z-score
CCGATTAACATCAAATAAATTCCTGATGTTAATCGGGTCTTGATTCGCTTGACGCTGCTG,binding signal,[1],-0.293 z-score
same,binding signal,[2],0.289 z-score
same,binding signal,[3],0.149 z-score
same,binding signal,[4],1.27 z-score
same,binding signal,[5],0.474 z-score
CCGATTAACATCACGCCGTCGGATGATGTTAATCGGGTCTTGATTCGCTTGACGCTGCTG,binding signal,[1],-0.427 z-score
same,binding signal,[2],-0.393 z-score
same,binding signal,[3],-0.985 z-score
same,binding signal,[4],-0.51 z-score
same,binding signal,[5],-0.378 z-score
CCGATTAACATCATTTTTAAACCTGATGTTAATCGGGTCTTGATTCGCTTGACGCTGCTG,binding signal,[1],-0.206 z-score
same,binding signal,[2],-0.0258 z-score
same,binding signal,[3],0.221 z-score
same,binding signal,[4],0.168 z-score
same,binding signal,[5],-0.151 z-score
CCGATTAACATCACTAGAATTCCTGATGTTAATCGGGTCTTGATTCGCTTGACGCTGCTG,binding signal,[1],0.0226 z-score
same,binding signal,[2],-0.106 z-score
same,binding signal,[3],0.408 z-score
same,binding signal,[4],0.645 z-score
same,binding signal,[5],0.404 z-score
CCGATTAACATCACAAAATGCCATGATGTTAATCGGGTCTTGATTCGCTTGACGCTGCTG,binding signal,[1],-0.152 z-score
same,binding signal,[2],-0.736 z-score
same,binding signal,[3],0.268 z-score
same,binding signal,[4],0.107 z-score
same,binding signal,[5],-0.186 z-score
CCGATTAACATCATGGCATTGCGTGATGTTAATCGGGTCTTGATTCGCTTGACGCTGCTG,binding signal,[1],-0.8 z-score
same,binding signal,[2],-0.794 z-score
same,binding signal,[3],-0.385 z-score
same,binding signal,[4],-0.886 z-score
same,binding signal,[5],-0.456 z-score
CCGATTAACATCATTACAAGTTATGATGTTAATCGGGTCTTGATTCGCTTGACGCTGCTG,binding signal,[1],-0.849 z-score
same,binding signal,[2],-0.456 z-score
same,binding signal,[3],-0.461 z-score
same,binding signal,[4],-0.0355 z-score
same,binding signal,[5],-0.46 z-score
CCGATTAACATCATCAGGGTTTGTGATGTTAATCGGGTCTTGATTCGCTTGACGCTGCTG,binding signal,[1],0.626 z-score
same,binding signal,[2],-0.425 z-score
same,binding signal,[3],0.654 z-score
same,binding signal,[4],0.963 z-score
same,binding signal,[5],0.627 z-score
CCGATTAACATCACTTTCGACCATGATGTTAATCGGGTCTTGATTCGCTTGACGCTGCTG,binding signal,[1],0.0137 z-score
same,binding signal,[2],-0.542 z-score
same,binding signal,[3],0.35 z-score
same,binding signal,[4],-0.0416 z-score
same,binding signal,[5],-0.231 z-score
CCGATTAACATCATCCCTGTGGCTGATGTTAATCGGGTCTTGATTCGCTTGACGCTGCTG,binding signal,[1],0.957 z-score
same,binding signal,[2],-0.113 z-score
same,binding signal,[3],-0.0268 z-score
same,binding signal,[4],-0.364 z-score
same,binding signal,[5],0.406 z-score
CCGATTAACATCAACTTTTATGCTGATGTTAATCGGGTCTTGATTCGCTTGACGCTGCTG,binding signal,[1],-0.526 z-score
same,binding signal,[2],-0.083 z-score
same,binding signal,[3],-0.304 z-score
same,binding signal,[4],-0.34 z-score
same,binding signal,[5],-0.188 z-score
CCGATTAACATCAGCTGTTAGCCTGATGTTAATCGGGTCTTGATTCGCTTGACGCTGCTG,binding signal,[1],-0.196 z-score
same,binding signal,[2],-0.0711 z-score
same,binding signal,[3],-0.735 z-score
same,binding signal,[4],-1.02 z-score
same,binding signal,[5],-0.445 z-score
CCGATTAACATCACATTCTCTATTGATGTTAATCGGGTCTTGATTCGCTTGACGCTGCTG,binding signal,[1],-0.509 z-score
same,binding signal,[2],-0.501 z-score
same,binding signal,[3],0.19 z-score
same,binding signal,[4],-0.216 z-score
same,binding signal,[5],-0.386 z-score
CCGATTAACATCAAATTTCCAATTGATGTTAATCGGGTCTTGATTCGCTTGACGCTGCTG,binding signal,[1],-0.896 z-score
same,binding signal,[2],-0.0162 z-score
same,binding signal,[3],-0.578 z-score
same,binding signal,[4],0.339 z-score
same,binding signal,[5],0.166 z-score
CCGATTAACATCATACCTATAGTTGATGTTAATCGGGTCTTGATTCGCTTGACGCTGCTG,binding signal,[1],-0.232 z-score
same,binding signal,[2],0.201 z-score
same,binding signal,[3],0.675 z-score
same,binding signal,[4],-0.093 z-score
same,binding signal,[5],-0.404 z-score
